From a collection of fitness landscapes (doi:10.1016/j.celrep.2020.107928)
The full ranking holds about 81,000 sequences; the median of “one-hybrid fitness for binding parS DNA” is about -0.17, and the highest 2% start at about 0.51. Some of the results follow.

B1: Caulobacter ParB omega fusion; a variant is named by its letters at X, in order, B8GW30 (parent)
chain: MESVVVGEPGMSEGRRGLGRGLSALLGEVDAAPAQAPGEQLGGSREAPIEILQRNPDQPRRTFREEDLEDLSNSIREKGVLQPILVRPSPDTAGEYQIVAGERAWRAAQRAGLKTVPIMVRELDDLAVLEIGIIENVQRADLNVLEEALSYKVLMEKFERTQENIAQTIGKSXSHVANXMRLLXLPDEVQSYLVSGELTAXHARAIAAAADPVALAKQIIEGGLSVRETEALARKAPNLSAGKSKGGRPPRVKDTDTQALESDLSSVLGLDVSIDHRGSTGTLTITYATLEQLDDLCNRLTRGI

Variants of: B1
Assay: one-hybrid fitness for binding parS DNA (scaled: cognate 1, non-cognate 0); higher = stronger binding
Conditions: with parS DNA site
Procedure, shortened: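 Pre- and post-selection plasmids were Illumina-sequenced, three replicate libraries were pooled, and any variant with under 10 reads was removed. The libraries were Caulobacter ParB with four specificity codons randomised, selected in E. coli USO through a HIS3 reporter whose site is 19 bp from the promoter. Cells grew 48 hours at 37°C on M9 without histidine, with 0.1 mM IPTG and 5 mM 3-AT. Fitness is the log change in variant-to-wild-type read ratio, rescaled against cognate and non-cognate.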

| Variant | one-hybrid fitness for binding parS DNA |
| --- | --- |
| TMHA | ≤ 0.2 |
| HGHG | ≤ 0.2 |
| RITR | ≤ 0.2 |
| NVYA | ≤ 0.2 |
| PDEA | ≤ 0.2 |
| PLHL | ≤ 0.2 |
| DRFT | ≤ 0.2 |
| GAMT | ≤ 0.2 |
| SRNY | ≤ 0.2 |
| CPKI | ≤ 0.2 |
| AETE | ≤ 0.2 |
| NMTF | ≤ 0.2 |
| GPQM | ≤ 0.2 |
| CRSW | ≤ 0.2 |
| WNNC | ≤ 0.2 |
| GMRV | ≤ 0.2 |
| RIMH | 0.264 |
| RTWY | 0.521 |
| MIVG | ≤ 0.2 |
| RYIQ | ≤ 0.2 |
| CFRS | ≤ 0.2 |
| HYQN | ≤ 0.2 |
| PDGS | ≤ 0.2 |
| RTWA | 0.626 |
| IEKR | ≤ 0.2 |
| HCYT | ≤ 0.2 |

| Variant | one-hybrid fitness for binding parS DNA |
| --- | --- |
| PNDK | ≤ 0.2 |
| PAQA | ≤ 0.2 |
| QTKS | ≤ 0.2 |
| MRKS | ≤ 0.2 |
| LYEV | ≤ 0.2 |
| AAGG | ≤ 0.2 |
| PDSP | ≤ 0.2 |
| VAGR | ≤ 0.2 |
| HAYR | ≤ 0.2 |
| SWQR | ≤ 0.2 |
| DSCR | ≤ 0.2 |
| SKNW | ≤ 0.2 |
| FNSV | ≤ 0.2 |
| RVYC | 0.991 |
| AYCR | ≤ 0.2 |
| LCHI | ≤ 0.2 |
| HSGS | ≤ 0.2 |
| QSSE | ≤ 0.2 |
| DLCS | ≤ 0.2 |
| YMQL | ≤ 0.2 |
| PHWG | ≤ 0.2 |
| NVPR | ≤ 0.2 |
| GSER | ≤ 0.2 |
| VNFP | ≤ 0.2 |
| PEYV | ≤ 0.2 |
| YANC | ≤ 0.2 |

| Variant | one-hybrid fitness for binding parS DNA |
| --- | --- |
| LGHL | ≤ 0.2 |
| VHMT | ≤ 0.2 |
| PVWV | ≤ 0.2 |
| APFR | ≤ 0.2 |
| ERMC | ≤ 0.2 |
| CPPC | ≤ 0.2 |
| LQRF | ≤ 0.2 |
| RCWD | 0.242 |
| IKWS | ≤ 0.2 |
| YPHS | ≤ 0.2 |
| KRGQ | ≤ 0.2 |
| RLVN | 0.4 |
| AWTA | ≤ 0.2 |
| VLRK | ≤ 0.2 |
| LNET | ≤ 0.2 |
| GEMI | ≤ 0.2 |
| IVQV | ≤ 0.2 |
| HELF | ≤ 0.2 |
| KMFR | ≤ 0.2 |
| RWQG | 0.741 |
| QQYK | ≤ 0.2 |
| PRMF | ≤ 0.2 |
| CTSE | ≤ 0.2 |
| GYQV | ≤ 0.2 |
| RHPW | ≤ 0.2 |
| KWPN | ≤ 0.2 |

| Variant | one-hybrid fitness for binding parS DNA |
| --- | --- |
| ATHL | ≤ 0.2 |
| NYEV | ≤ 0.2 |
| RSFQ | ≤ 0.2 |
| HKLN | ≤ 0.2 |
| DSNN | ≤ 0.2 |
| KRSP | ≤ 0.2 |
| DLAE | ≤ 0.2 |
| HRAE | ≤ 0.2 |
| SPLC | ≤ 0.2 |
| IIHG | ≤ 0.2 |
| RMGY | 0.459 |
| MVTQ | ≤ 0.2 |
| EASR | ≤ 0.2 |
| RYLQ | ≤ 0.2 |
| WRFL | ≤ 0.2 |
| DTCC | ≤ 0.2 |
| QSFM | ≤ 0.2 |
| QDAN | ≤ 0.2 |
| YNTR | ≤ 0.2 |
| PGAR | ≤ 0.2 |
| MQIS | ≤ 0.2 |
| FGIS | ≤ 0.2 |
| TPIF | ≤ 0.2 |
| ERRA | ≤ 0.2 |
| QDPA | ≤ 0.2 |
| VVKS | ≤ 0.2 |

| Variant | one-hybrid fitness for binding parS DNA |
| --- | --- |
| QCEL | ≤ 0.2 |
| GTPQ | ≤ 0.2 |
| RKAY | 0.378 |
| TDEQ | ≤ 0.2 |
| KQRA | ≤ 0.2 |
| AHSQ | ≤ 0.2 |
| YWRR | ≤ 0.2 |
| TQHG | ≤ 0.2 |
| TFLE | ≤ 0.2 |
| QHAA | ≤ 0.2 |
| TTRP | ≤ 0.2 |
| QCIC | ≤ 0.2 |
| SLCQ | ≤ 0.2 |
| QPNC | ≤ 0.2 |
| AVWV | ≤ 0.2 |
| RYCW | ≤ 0.2 |
| INTG | ≤ 0.2 |
| HLRT | ≤ 0.2 |
| ANSF | ≤ 0.2 |
| KFYV | ≤ 0.2 |
| RHIS | 0.813 |
| MIPN | ≤ 0.2 |
| GYNS | ≤ 0.2 |
| KFTS | ≤ 0.2 |
| DAMF | ≤ 0.2 |
| QVHN | ≤ 0.2 |

| Variant | one-hybrid fitness for binding parS DNA |
| --- | --- |
| INPW | ≤ 0.2 |
| PTKK | ≤ 0.2 |
| WDHR | ≤ 0.2 |
| QSLY | ≤ 0.2 |
| KETT | ≤ 0.2 |
| TQPI | ≤ 0.2 |
| DQDR | ≤ 0.2 |
| HQDS | ≤ 0.2 |
| THNC | ≤ 0.2 |
| IYGG | ≤ 0.2 |
| AGSH | ≤ 0.2 |
| HQKT | ≤ 0.2 |
| KARM | ≤ 0.2 |
| MWLS | ≤ 0.2 |
| TNWM | ≤ 0.2 |
| MGGA | ≤ 0.2 |
| QNLH | ≤ 0.2 |
| EDIC | ≤ 0.2 |
| QTCI | ≤ 0.2 |
| IARP | ≤ 0.2 |
| RTQV | ≤ 0.2 |
| GLGT | ≤ 0.2 |
| WTWS | ≤ 0.2 |
